Reference: patent publication US20150299754A1, “STREPTOMYCES MICROFLAVUS STRAINS AND METHODS OF THEIR USE TO CONTROL PLANT DISEASES AND PESTS” (Bayer CropScience LP, priority 2014, published 2015)

How the values were obtained:
[1] = test system: wild-type spider mites (Tetranychus urticae strain RW); test: Activity against wild-type spider mites on French bean
Procedure: (§1) A study was performed to determine the activity of NRRL B-50550 against abamectin-resistant spider mites (Tetranychus urticae strain NL), as compared to wild-type spider mites (Tetranychus urticae strain RW). French bean plants were treated with a wettable powder of a fermentation product of NRRL B-50550 prepared as described in the last paragraph of Example 9, at the rates shown in Table 15 below after dilution. Plants were infested one day prior to treatment with 50-100 of either strain NL or RW, and assessed for the presence of mites seven and fourteen days after treatment.

[2] = test system: abamectin-resistant spider mites (Tetranychus urticae strain NL); test: Activity against abamectin-resistant spider mites on French bean
Procedure: as §1

Abamectin
7 days Wild Type Mites (% control) ([1]; 0.16 ppm): 99% | 14 days Wild Type Mites (% control) ([1]; 0.16 ppm): 100% | 7 days Wild Type Mites (% control) ([1]; 0.8 ppm): 100% | 14 days Wild Type Mites (% control) ([1]; 0.8 ppm): 100% | 7 days Wild Type Mites (% control) ([1]; 4 ppm): 100% | 14 days Wild Type Mites (% control) ([1]; 4 ppm): 100% | 7 days Wild Type Mites (% control) ([1]; 20 ppm): 100% | 14 days Wild Type Mites (% control) ([1]; 20 ppm): 100% | 7 days Resistant Mites (% control) ([2]; 0.16 ppm): 0% | 14 days Resistant Mites (% control) ([2]; 0.16 ppm): 0% | 7 days Resistant Mites (% control) ([2]; 0.8 ppm): 80% | 14 days Resistant Mites (% control) ([2]; 0.8 ppm): 0% | 7 days Resistant Mites (% control) ([2]; 4 ppm): 99% | 14 days Resistant Mites (% control) ([2]; 4 ppm): 80% | 7 days Resistant Mites (% control) ([2]; 20 ppm): 99% | 14 days Resistant Mites (% control) ([2]; 20 ppm): 99%
